Experiment [1] deals with T1, biotinylated human GPC-3 (R&D Systems) (human, UniProt P51654 25-559, randomly biotinylated via Lysine residues using EZ-Link Sulfo-NHS-LC-LC-Biotin).
T1 construct: Bought protein; also called biotinylated recombinant human GPC-3 (R&D 2119-GP/CF)
The experiment in a line: direct ELISA, biotinylated human GPC-3 captured via Neutravidin, dilution series of the Tlc mutein. The procedure: (§1) An ELISA was performed to verify the binding affinity and specificity of the selected Tlc muteins. Therefore, a constant concentration of 1 μg/ml biotinylated human GPC-3 (R&D Systems) was captured on the surface of a polystyrol plate (Greiner, GE) via BSA blocked Neutravidin (Thermo Scientific, 5 μg/ml). Two step dilution series of purified Tlc muteins were incubated with the captured GPC-3 for 1 h at room temperature and detected either via the Strep-tag II using a rabbit anti-strep-tag II polyconal antibody (GenScript, USA) or by using a scaffold-specific polyclonal rabbit antibody. In both cases an anti-rabbit-IgG-HRP conjugate (Abcam, UK) was employed as secondary detection antibody.
(§2) The absorption ΔA at 320 nm was measured in an ELISA reader (Tecan, GE) and the data were fitted with Graphpad Prism software (Statcom, USA).

For experiment [2], the target named is T2, human GPC-3 on cells (SK Hep1:hGPC-3 transfectants; HepG2) (human, UniProt P51654 25-554).
T2 construct: whole, on cells; The same molecule is used for the transfected SK-Hep1 cells and the GPC-3 positive HepG2 cells; The cell line is named under assay; also called Glypican-3
Put plainly: flow cytometry titration on human GPC-3 transfected SK-Hep1 cells, geometric mean fluorescence, detection with anti-Tlc antiserum and anti-rabbit IgG-PE. The procedure: Empty vector control cells were also obtained and analyzed in parallel. Expression of GPC-3 was also confirmed using a known mouse anti-GPC-3 clone 1G12 monoclonal antibody (DOS).
In order to assess binding of muteins to the GPC-3 on the cell surface, cells were incubated on ice with increasing concentrations of each lipocalin mutein for 2 hr. Following two washing steps cells were incubated with a secondary rabbit anti-Tlc scaffold antiserum was employed for 30 min. […] Flow cytometry analysis was performed and geometric mean values were compiled in FlowJo (Treestar software) and fitted to a sigmoidal dose response model in the Prism 5 program (GraphPad) to obtain EC50 values.

The target of experiment [3] is T1, biotinylated human GPC-3 (R&D Systems). Put plainly: direct ELISA on biotinylated human GPC-3 captured via Neutravidin. The procedure: as §1, §2

The record followed here is patent US20170066807A1 (Pieris, published 2017).

T1 sequence (P51654 25-559 limits assumed): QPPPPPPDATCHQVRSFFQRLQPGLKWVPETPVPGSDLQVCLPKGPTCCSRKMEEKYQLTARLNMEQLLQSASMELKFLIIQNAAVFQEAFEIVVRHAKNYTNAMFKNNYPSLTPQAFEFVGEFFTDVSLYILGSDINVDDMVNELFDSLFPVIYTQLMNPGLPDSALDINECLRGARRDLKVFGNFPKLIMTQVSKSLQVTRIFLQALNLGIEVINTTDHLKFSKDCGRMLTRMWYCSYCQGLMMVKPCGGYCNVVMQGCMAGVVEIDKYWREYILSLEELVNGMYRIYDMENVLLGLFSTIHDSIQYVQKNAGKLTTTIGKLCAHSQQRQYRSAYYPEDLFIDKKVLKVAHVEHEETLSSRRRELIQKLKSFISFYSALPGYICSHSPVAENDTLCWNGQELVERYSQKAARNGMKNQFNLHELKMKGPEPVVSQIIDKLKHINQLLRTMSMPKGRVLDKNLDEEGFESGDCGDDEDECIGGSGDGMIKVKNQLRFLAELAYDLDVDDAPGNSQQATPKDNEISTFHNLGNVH

B1: Tlc mutein of SEQ ID NO: 8 (designed binder)
chain: ASDEEIQDVSGTWYLKAMTVDTECFEARFHSVTPMTLTTLEGGNLEAKVTMWLNGWRQEVKAVLEKTDEPGKYTADGGKHVAYIIRSHVKDHYIFYSEGDCEGWPVPGVWLVGRDPKNNLEALEDFEKAAGARGLSTESILIPRQSETSSPG
notes: Human tear lipocalin mutein; It was detected via Strep-tag II or a scaffold-specific antibody
What is called EC50 is the concentration at which the effect is half-maximal. Usually EC50 (read off the curve) stands for the concentration giving half of the maximal effect. A high value points to a less potent agent. As for B1, it took 1.2 nM to reach a half-maximal effect in experiment [1] (EC50). Further, the “EC50 (read off the curve)” value in experiment [2] is about 10 nM.

B2: protein of SEQ ID NO: 10 (negative-control protein) (other)
chain: ASDEEIQDVSGTWYLKAMTVDRECPEMNLESVTPMTLTTLEGGNLEAKVTMLISGRSQEVKAVLEKTDEPGKYTADGGKHVAYIIRSHVKDHYIFYSEGECHGKPVPGVWLVGRDPKNNLEALEDFEKAAGARGLSTESILIPRQSETSSPG
As for B2, the binding result in experiment [2] was “no binding (tested: 10000 nM)”; in experiment [3] it was “no binding (tested: about 500 nM)”.
